Experimental data reported in US20250353917A1 (SYSTIMMUNE, published 2025).

Molecular target: EGFR on BxPC-3 cells (UniProt P00533)
Assay: cell-based or functional assay

B1: SI-55H11 (other)
heavy: EIVLTQSPSTLSVSPGERATFSCRASQSIGTNIHWYQQKPGKPPRLLIKYASESISGIPDRFSGSGSGTEFTLTISSVQSEDFAVYYCQQNNNWPTTFGPGTKLTVLGGGGSGGGGSGGGGSGGGGSQVQLQQSGPGLVKPSETLSITCTVSGFSLTNYGVHWIRQAPGKGLEWLGVIWSGGNTDYNTPFTSRFTITKDNSKNQVYFKLRSVRADDTAIYYCARALTYYDYEFAYWGQGTLVTVSSGGGGSGGGGSGGGGSGGGGSEVQLVESGGGLVQPGGSLRLSCAASGFTISTNAMSWVREAPGKCLEWIGVITGRDITYYASWAKGRFTISRDNSKNTLYLQMNSLRAEDTAVYYCARDGGSSAITSNNIWGQGTLVTVSSASTKGPSVFPLAPSSKSTSGGTAALGCLVKDYFPEPVTVSWNSGALTSGVHTFPAVLQSSGLYSLSSVVTVPSSSLGTQTYICNVNHKPSNTKVDKRV[human IgG1 Fc with changes left out here]GGGGSGGGGSEVQLLESGGGLVQPGGSLRLSCAASGFSFSSGYDMCWVRQAPGKGLEWIACIAAGSAGITYDANWAKGRFTISRDNSKNTLYLQMNSLRAEDTAVYYCARSAFSFDYAMDLWGQGTLVTVSSGGGGSGGGGSGGGGSGGGGSDIQMTQSPSTLSASVGDRVTITCQASQSISSHLNWYQQKPGKAPKLLIYKASTLASGVPSRFSGSGSGTEFTLTISSLQPDDFATYYCQQGYSWGNVDNVFGGGTKVEIKGGGGSGGGGSGRSLVESGGGLVQPGGSLRLSCTASGFTISSYHMQWVRQAPGKGLEYIGTISSGGNVYYASSARGRFTISRPSSKNTVDLQMNSLRAEDTAVYYCARDSGYSDPMWGQGTLVTVSSGGGGSGGGGSGGGGSGGGGSDVVMTQSPSSVSASVGDRVTITCQASQNIRTYLSWYQQKPGKAPKLLIYAAANLASGVPSRFSGSGSGTDFTLTISDLEPGDAATYYCQSTYLGTDYVGGAFGGGTKVEIK
light: ENVLTQSPASLSASPGERVTITCSASSSVSYMHWYQQKPGQAPKLWIYDTSKLASGVPSRFSGSGSGNDHTLTISSMEPEDFATYYCFQGSVYPFTFGQGTKVTVLGGGGSGGGGSGGGGSGGGGSQVTLKESGPGLVQPGQTLSLTCAFSGFSLSTSGMGVGWIRQPPGKGLEWLAHIWWDDDKRYNPALKSRLTISKDTSKNQVYLQMNSLDAEDTAVYYCARMELWSYYFDYWGQGTLVTVSSGGGGSGGGGSDVVMTQSPSTLSASVGDRVTINCQASESISSWLAWYQQKPGKAPKLLIYEASKLASGVPSRFSGSGSGTEFTLTISSLQPDDFATYYCQGYFYFISRTYVNSFGCGTKVEIKRTVAAPSVFIFPPSDEQLKSGTASVVCLLNNFYPREAKVQWKVDNALQSGNSQESVTEQDSKDSTYSLSSTLTLSKADYEKHKVYACEVTHQGLSSPVTKSFNRGECGGGGSGGGGSGGGGSQSALTQPASVSGSPGQSITISCTGTSSDVGGYNFVSWYQQHPGKAPKLMIYDVSDRPSGVSDRFSGSKSGNTASLIISGLQADDEADYYCSSYGSSSTHVIFGGGTKVTVLGGGGSGGGGSGGGGSGGGGSQVQLQESGGGLVKPGGSLSLSCAASGFTFSSYWMSWVRQAPGKGLEWVANINRDGSASYYVDSVKGRFTISRDDAKNSLYLQMNSLRAEDTAVYYCARDRGVGYFDLWGRGTLVTVSS
TDCC EC50 (pM): 0.0939 pM
